This is one part of the list. At the low end of the ranking the order means little.
These sequences were tested against T1, GST-Rok-C97-191 (UniProt O34857) (assay: protein binding microarray). Details: Rok is a gene silencer of Bacillus subtilis; high values mean tight binding; most listed sequences are background and not binding sites; double strand, one strand shown.
T1 sequence: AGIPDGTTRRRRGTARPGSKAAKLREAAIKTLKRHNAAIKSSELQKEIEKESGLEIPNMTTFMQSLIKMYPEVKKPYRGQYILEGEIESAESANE
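Further: rank score from −0.5 (least bound) to 0.5 (best bound).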

| Sequence | binding signal |
| --- | --- |
| ACTAGCCA | 0.0611 E-score |
| CCATGGAG | 0.0212 E-score |
| ACGGACCT | -0.317 E-score |
| ATTTAGCA | 0.318 E-score |
| AGTTAACT | 0.243 E-score |
| ACGTGAAT | 0.101 E-score |
| GCGCTCAC | -0.194 E-score |
| CCAGTGAA | -0.048 E-score |
| CCTTTGTA | 0.0944 E-score |
| GGTTCGAA | -0.0927 E-score |
| ACCTACAT | 0.227 E-score |
| ATGCACGG | 0.0745 E-score |
| AGTTACTG | 0.25 E-score |
| CGATGCCA | -0.252 E-score |
| ATGGGCGA | -0.197 E-score |
| GCGGCGGA | -0.271 E-score |
| CAGCCCCC | -0.441 E-score |
| CATCTGCG | -0.166 E-score |
| AAGACTCT | -0.119 E-score |
| TTGAGAAA | 0.0442 E-score |
| CACGCGGA | -0.00929 E-score |
| CACTCGTA | 0.187 E-score |
| CGCCTTCA | -0.0838 E-score |
| CCAGCGGA | -0.168 E-score |
| TATGGCCA | 0.0565 E-score |

| Sequence | binding signal |
| --- | --- |
| CGGGCGCA | -0.153 E-score |
| AAAGGCCA | -0.131 E-score |
| CATTTGTA | 0.276 E-score |
| GTTAGAGA | 0.00481 E-score |
| ACAACATG | 0.0419 E-score |
| ACATGGGC | -0.0477 E-score |
| AAGAAACG | -0.0354 E-score |
| ACTCAAGC | -0.0317 E-score |
| AATAGTGA | 0.219 E-score |
| ATGTGCCA | -0.163 E-score |
| AACCCTGT | -0.00908 E-score |
| ACACGGCA | 0.0513 E-score |
| ATGTTCCC | 0.0954 E-score |
| ATCGGAAC | -0.0269 E-score |
| CCTTACGC | -0.0795 E-score |
| AAAGCCGT | -0.127 E-score |
| CGAAACCA | -0.131 E-score |
| CGCTGAAG | -0.13 E-score |
| GGCGTGTA | 0.0251 E-score |
| AAAAATCG | 0.0467 E-score |
| CTACTCTA | 0.207 E-score |
| CACACATA | 0.0617 E-score |
| CACTGAGC | -0.224 E-score |
| CTCGATGA | 0.0233 E-score |
| AAAAACCA | 0.0856 E-score |

| Sequence | binding signal |
| --- | --- |
| CAGCCACA | -0.41 E-score |
| ATAGCGGC | 0.0742 E-score |
| CTCGCTTA | -0.162 E-score |
| ATAATCTC | 0.178 E-score |
| AATCTAGT | 0.282 E-score |
| AGGCCCTG | -0.16 E-score |
| AGCTTCGA | -0.141 E-score |
| ACGACCCG | -0.29 E-score |
| CAACGTCC | -0.328 E-score |
| CCTGTGCA | -0.0377 E-score |
| AGGCACCA | -0.152 E-score |
| CTAAGATA | 0.213 E-score |
| GTCACCAA | -0.196 E-score |
| AATACCAC | 0.241 E-score |
| CGGAAACA | -0.0708 E-score |
| GCACGGGA | -0.193 E-score |
| ATCTACAC | 0.273 E-score |
| CGTAAAAC | 0.0179 E-score |
| ACGGTCTA | -0.122 E-score |
| AGTAACGC | 0.00371 E-score |
| AGGGGTCG | -0.353 E-score |
| GAAGGTTA | 0.0547 E-score |
| CAAGCTGA | -0.274 E-score |
| CGCTAGGA | -0.0406 E-score |
| GAGTATCA | -0.0174 E-score |

| Sequence | binding signal |
| --- | --- |
| ATGCTAGG | 0.062 E-score |
| AGTGTTAT | 0.19 E-score |
| TCCACAAA | 0.00724 E-score |
| GGGGGAGA | -0.156 E-score |
| AGCAAGTC | -0.196 E-score |
| GAGGAGAC | -0.258 E-score |
| ACGTAACC | -0.138 E-score |
| CGAGATCC | 0.128 E-score |
| AAGCGTTC | -0.199 E-score |
| CCGGAAAA | 0.0361 E-score |
| GGGCTAAC | -0.0664 E-score |
| GCCTTCGA | -0.156 E-score |
| CGACTTGA | 0.0696 E-score |
| GAGTGAAC | 0.0307 E-score |
| GGCGCGCC | -0.422 E-score |
| AATGATGG | 0.013 E-score |
| ATATCCAA | 0.249 E-score |
| ACAGAATA | 0.156 E-score |
| AGAGTGCG | -0.139 E-score |
| ACTCACCC | -0.179 E-score |
| AAAGTGAC | -0.0335 E-score |
| ATCCGGGA | -0.189 E-score |
| GACTTAAC | 0.0428 E-score |
| CTGGGGGC | -0.392 E-score |
| AAGGTGCA | -0.103 E-score |

| Sequence | binding signal |
| --- | --- |
| ATCGAAGG | -0.186 E-score |
| ACATTTGA | -0.0376 E-score |
| TCTGTGAA | 0.0175 E-score |
| AAGTGAAG | -0.0365 E-score |
| GTAGATCA | 0.24 E-score |
| AACTACTA | 0.465 E-score |
| GGCTACTA | 0.0153 E-score |
| AGTACGTA | 0.227 E-score |
| AAGTCCCA | -0.172 E-score |
| ACTAGTTA | 0.448 E-score |
| CTGCTAAA | -0.0612 E-score |
| AAAGCCCC | -0.326 E-score |
| AGAAACAT | 0.154 E-score |
| ACAGTTAG | 0.116 E-score |
| GTAAGGAA | -0.0549 E-score |
| GAATGGCA | -0.0487 E-score |
| GAACCGAA | 0.00912 E-score |
| AATGGCAT | 0.103 E-score |
| GAAACCAC | 0.0189 E-score |
| CTAAGGGC | -0.183 E-score |
| CGTTACCC | -0.231 E-score |
| AGCAGATA | 0.0118 E-score |
| GAGTGATC | -0.175 E-score |
| TAAGCCCA | -0.182 E-score |
| CATGGTCC | -0.111 E-score |

| Sequence | binding signal |
| --- | --- |
| GTTCGCGA | -0.163 E-score |
| ACCTCTGC | -0.089 E-score |
| AGCAAACA | -0.103 E-score |
| GCCACCAA | -0.143 E-score |
| ACCGTTCG | -0.153 E-score |
| AAAAGCAA | 0.148 E-score |
| GCTCGACC | -0.211 E-score |
| AACTATTA | 0.444 E-score |
| ACAGTAGG | 0.201 E-score |
| CTGTGCTC | -0.26 E-score |
| TCAACTGA | 0.0288 E-score |
| CTAAGTCA | -0.0334 E-score |
| AGGTTCCC | -0.303 E-score |
| CTACGCGA | -0.0284 E-score |
| AGACCAAT | -0.161 E-score |
| ACATCTAA | 0.0495 E-score |
| GGGCGAAC | -0.281 E-score |
| ATTTTCGC | -0.00708 E-score |
| GCATAAGC | -0.0858 E-score |
| CGCGCAGA | -0.0439 E-score |
| GACTGAAC | 0.0198 E-score |
| AAAGGTAC | 0.217 E-score |
| CCGGACCA | -0.196 E-score |
| TCCTACCA | 0.273 E-score |
| TACAGTGA | 0.0342 E-score |

| Sequence | binding signal |
| --- | --- |
| GGAATTCA | -0.0845 E-score |
| AGATCAGG | 0.0368 E-score |
| CCCTCAGG | -0.376 E-score |
| ATCTCAAG | -0.0379 E-score |
| TCAGTACA | 0.0426 E-score |
| GTTCTTGA | -0.071 E-score |
| CCCGGCAG | -0.212 E-score |
| ACCAGCCT | 0.043 E-score |
| CCCAAATC | -0.133 E-score |
| AGGCTCAG | -0.277 E-score |
| CAAGGCAG | -0.103 E-score |
| ACTACCGA | 0.308 E-score |
| GTTATACA | 0.253 E-score |
| CAAATTGA | -0.0429 E-score |
| ATTTTACC | 0.322 E-score |
| CGCCGTAG | 0.0501 E-score |
| GCTCGTTA | -0.0735 E-score |
| CATCCCGC | -0.0584 E-score |
| AATCACGT | 0.0359 E-score |
| AGTTGGAC | -0.194 E-score |
| CCAGTAAG | -0.27 E-score |
| GGTTGCCA | -0.212 E-score |

From publication PMC6212790
